Measured values reported in PubChem BioAssay AID1347073 (National Center for Advancing Translational Sciences (NCATS), 2019).
Among all 45,000 compounds or so, about 200 (0.44%) were called active. Another 7% or so got no clear call; they are omitted. The call rests on the fitted dose curve; in most records, active means well fitted activation curve with a large enough effect; inconclusive means small, poorly fitted or top-dose-only effect; inactive means no such curve, though single readings can be large or run the other way. The list shows a part of the results.

Assay: qHTS of TDP-43 Inhibitors: NCGC Sytravon Library Screen; further: 0% is about no effect; nearly all actives have a fitted effect of over 55% in size
Settings: yeast TDP-43 toxicity rescue, BacTiter-Glo growth, 24 h; series mostly up to 46.1 µM; growth rescue (activation): at the top concentration
In short: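 TDP-43-expressing yeast, pregrown in raffinose, seeded at OD600 0.02 in galactose medium with compound for 24 hr at 30 deg C. Growth read by BacTiter-Glo luminescence, so rescue of toxicity appears as activation.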
With `C=CCN(CC=C)C(=O)CN1C(=O)NC(C)(c2ccc3cc(OC)ccc3c2)C1=O` (configuration not stated) the “growth rescue (activation)” value was inactive: 1.12%.
For `CC(=O)Nc1ccc(NC(=O)c2ccccc2Sc2ccc([N+](=O)[O-])cc2Cl)cc1`, the “growth rescue (activation)” value was inactive: 7.48%.
With `O=C(CN(Cc1ccco1)C(=O)CNS(=O)(=O)c1ccc(Cl)cc1)NCC1CCCO1` (configuration not stated) the “growth rescue (activation)” value was inactive: 10.8%.
With `COc1ccccc1N1CCN(c2ccnc3cc(Cl)ccc23)CC1` the “growth rescue (activation)” value was inactive: 9.24%.
For `Cc1cc2c(cc1C)[n+](C)cn2CC(O)COCC1CC=CCC1` (configuration not stated), the “growth rescue (activation)” value was inactive: -4.1%.
With `COc1ccc2cc(C)c3nnc(SCC(=O)Nc4cc(OC)c(OC)cc4C(=O)O)n3c2c1` the “growth rescue (activation)” value was inactive: -12%.
With `O=C(Nc1ccc(S(=O)(=O)N2CCCCC2)cc1)c1ccco1` the “growth rescue (activation)” value was inactive: 12.1%.
With `O=C(NCc1ccccn1)c1coc(=O)c(Br)c1` the “growth rescue (activation)” value was inactive: -2.9%.
In the case of `O=C(CCN1C(=O)/C(=C\c2ccccc2)SC1=S)NNC(=O)c1ccccc1O`, the “growth rescue (activation)” value was inactive: 9.76%.
For `CC(C)(C)c1ccccc1OCC(=O)Nc1ccccc1C(=O)NCc1cccnc1`, the “growth rescue (activation)” value was inactive: -1.02%.
In the case of `CCCN1C(=O)c2ccc(C(=O)Nc3ccccc3C(=O)O)cc2C1=O`, the “growth rescue (activation)” value was inactive: -31.8%.
For `CCOCCCNC(=O)c1ccc(Cn2c(=O)[nH]c3ccsc3c2=O)cc1`, the “growth rescue (activation)” value was inactive: 12.6%.
With `O=C(CN1C(=O)NC2(CCCCC2)C1=O)Nc1ccc(N2CCOCC2)cc1` the “growth rescue (activation)” value was inactive: -9.6%.
For `CN(C)CC1CCCCC1OC(=O)/C=C/c1ccccc1` (configuration not stated), the “growth rescue (activation)” value was inactive: 4.24%.
In the case of `O=C(NCc1ccc(F)cc1)c1cc(C2CCCCN2C(=O)CCCc2ccccc2)on1` (configuration not stated), the “growth rescue (activation)” value was inactive: 16.2%.
In the case of `Cc1cccc(C)c1NC(=O)[C@@]1(CC(=O)O)CC(/C=C/c2ccccc2)=NO1`, the “growth rescue (activation)” value was inactive: -9.23%.
In the case of `CCc1ccc(NC(=O)CN2C(=O)C(c3ccc(F)cc3)=NC2(C)C)cc1`, the “growth rescue (activation)” value was inactive: 42.1%.
In the case of `CC1(C2CC2)NC(=O)N(CC(=O)Nc2ccc(SC(F)F)cc2)C1=O` (configuration not stated), the “growth rescue (activation)” value was inactive: 8%.
In the case of `CCCc1[nH]n(-c2ccc(F)cc2)c(=O)c1C=Nc1cccc(F)c1`, the “growth rescue (activation)” value was inactive: 14.3%.
In the case of `CCC(C)C(=O)Nc1ccc([N+](=O)[O-])cc1OC` (configuration not stated), the “growth rescue (activation)” value was inactive: 13.8%.
With `Nc1nc(SCC(=O)c2cccs2)n[nH]1` the “growth rescue (activation)” value was inactive: -4.43%.
For `Cc1ccc(NC(=O)COC(=O)CCOc2ccccc2C)cc1`, the “growth rescue (activation)” value was inactive: 8.7%.
For `Cc1ccc(Cl)c(NC(=O)CSc2cccc[n+]2[O-])c1Cl`, the “growth rescue (activation)” value was inactive: -8.15%.
In the case of `COC(=O)c1cc(OC)c(OC)cc1NCC(=O)Nc1ccc(OC)c(OC)c1`, the “growth rescue (activation)” value was inactive: -1.23%.
In the case of `O=C(NC1CCCCC1)C1(S(=O)(=O)c2ccc(Cl)cc2)CC1`, the “growth rescue (activation)” value was inactive: 1.67%.
For `COc1ccc(N(CC(=O)NCCC2=CCCCC2)S(=O)(=O)c2ccccc2)c(OC)c1`, the “growth rescue (activation)” value was inactive: 16.2%.
For `CCSc1ncc(Cl)c(C(=O)N(Cc2ccc(N(C)C)cc2)Cc2ccco2)n1`, the “growth rescue (activation)” value was inactive: 9.96%.
For `COC(=O)CNc1nc(-c2ccncc2)nc2ccccc12`, the “growth rescue (activation)” value was inactive: 35.7%.
In the case of `COc1ccc(-c2noc(-c3ccccc3-c3ccccc3)n2)cc1OC`, the “growth rescue (activation)” value was inactive: 31.2%.
For `COc1ccc(N(CCCN2C(=O)c3cccc4cccc(c34)C2=O)C(=O)c2ccncc2)cc1`, the “growth rescue (activation)” value was inactive: 5.96%.
With `COc1c(/C=N/NC(=O)c2ccccc2O)c(CCN(C)C(C)=O)cc2c1OCO2` the “growth rescue (activation)” value was inactive: 17.1%.
In the case of `CCCS(=O)(=O)NC(=O)C1(C)CCN(C(=O)Cc2ccc3ccccc3c2)C1` (configuration not stated), the “growth rescue (activation)” value was inactive: -9.44%.
In the case of `CCn1c(SCc2nc3scc(-c4ccccc4)c3c(=O)[nH]2)nnc1-c1cccs1`, the “growth rescue (activation)” value was inactive: 17%.
With `COC(=O)N/N=C/c1ccc(OS(=O)(=O)c2ccc(C)cc2)c(OC)c1` the “growth rescue (activation)” value was inactive: 3.72%.
With `CCC(CC)=NNc1ccc([N+](=O)[O-])cc1[N+](=O)[O-]` the “growth rescue (activation)” value was inactive: 4.69%.
With `COc1ccc2oc(C(=O)OCC(=O)/C(C#N)=C(\C)N)c(C)c2c1` the “growth rescue (activation)” value was inactive: -19.3%.
With `NS(=O)(=O)c1ccc(CCNC(=O)CN2CCC(Cc3ccccc3)CC2)cc1` the “growth rescue (activation)” value was inactive: 5.59%.
For `CN(C)/C=N/c1sc2c(c1C#N)CCCCC2`, the “growth rescue (activation)” value was inactive: -9.85%.
In the case of `CC(=O)Nc1cccc(NC=C(C#N)C#N)c1`, the “growth rescue (activation)” value was inactive: -1.34%.
In the case of `Cc1oc(-c2cc(F)ccc2F)nc1CN1CCN(c2cnccn2)CC1`, the “growth rescue (activation)” value was inactive: 6.02%.
With `CC1CCN(c2ccc(NC(=O)c3ccccc3[N+](=O)[O-])cc2)CC1` the “growth rescue (activation)” value was inactive: -19%.
In the case of `CCN1CCN(S(=O)(=O)c2ccc(OC)c3ccccc23)CC1`, the “growth rescue (activation)” value was inactive: 8.07%.
With `CC(C)[C@H](NC(=O)c1ccc(Cl)cc1Cl)C(=O)NNC(=O)c1ccco1` the “growth rescue (activation)” value was inactive: -11.2%.
With `CC(=O)Nc1ccc(S(=O)(=O)N(C)CC(=O)OCC(=O)Nc2ccc3c(c2)OCO3)cc1` the “growth rescue (activation)” value was inactive: 2.76%.
For `CCC1CCCCN1C(=O)Nc1cc(Cl)ccc1OC` (configuration not stated), the “growth rescue (activation)” value was inactive: 9.34%.
With `Cc1ccc(Cl)cc1NC(=O)N1CCC2(CC1)Oc1ccccc1C(=O)N2Cc1ccccc1F` the “growth rescue (activation)” value was inactive: -4.87%.
In the case of `COc1ccc(CC(=O)Nc2ccc(NC(=O)c3ccccc3F)cc2)cc1`, the “growth rescue (activation)” value was inactive: 2.31%.
With `O=C(CSc1ccccc1C(=O)N1CCN(c2ccc([N+](=O)[O-])cc2)CC1)N1CCCC1` the “growth rescue (activation)” value was inactive: 21.1%.
For `COc1ccccc1CNC(=O)C1CCC(CNS(=O)(=O)c2cccs2)CC1` (configuration not stated), the “growth rescue (activation)” value was inactive: 3.02%.
In the case of `Cc1ccc(OCC(=O)NCCc2nc3ccccc3[nH]2)c(C)c1`, the “growth rescue (activation)” value was inactive: 21.2%.
In the case of `COC(=O)c1ccc(CNC(=O)c2ccc(S(=O)(=O)N3CCCCCC3)cc2)cc1`, the “growth rescue (activation)” value was inactive: 4.42%.
For `CC(=O)c1c(C)oc2ccc(N(C(=O)Oc3ccccc3)S(=O)(=O)c3ccccc3)cc12`, the “growth rescue (activation)” value was inactive: -11.3%.
With `CCCCNC(=O)C1CC(=O)N(CCC(C)C)C1` (configuration not stated) the “growth rescue (activation)” value was inactive: 17.9%.
With `CN1CCN(NC(=O)c2cc(S(=O)(=O)Nc3ccc(Cl)cc3)ccc2Cl)CC1` the “growth rescue (activation)” value was inactive: 33.1%.
For `O=C(N/N=C\C=C\c1ccco1)c1cncc(Br)c1`, the “growth rescue (activation)” value was inactive: 7.78%.
In the case of `O=C(Cn1cc2c(n1)CCCCC2)Nc1c(F)cc(F)cc1Br`, the “growth rescue (activation)” value was inactive: 16%.
For `O=C(COC(=O)C12CC3CC(CC(C3)C1)C2)Nc1nc2c(F)c(F)c(F)cc2s1`, the “growth rescue (activation)” value was inactive: 12.8%.
In the case of `O=C(O)c1cc(S(=O)(=O)NC2CCCc3ccccc32)ccc1O` (configuration not stated), the “growth rescue (activation)” value was inactive: 18.8%.
In the case of `CCSc1nc(-c2ccccc2)nc2c1CCCC2`, the “growth rescue (activation)” value was inactive: 12.3%.
For `NS(=O)(=O)c1cc(C(=O)Nc2ccc3c(c2)CCC3)ccc1Cl`, the “growth rescue (activation)” value was inactive: 14.3%.
For `Cc1ccc(C)c(NC(=O)CSc2sc3c(O)cc(=O)[nH]c3c2C#N)c1`, the “growth rescue (activation)” value was inactive: 11.9%.
In the case of `O=C(CCc1nc(-c2ccccc2Cl)no1)NC1CCCCC1`, the “growth rescue (activation)” value was inactive: 23.6%.
With `Cc1ccc(C(=O)N/C(=C\c2ccc(-c3ccccc3[N+](=O)[O-])o2)C(=O)NCCN(C)C)cc1` the “growth rescue (activation)” value was inactive: 7.07%.
In the case of `Cc1ccccc1CC1(CO)CCCN(C(=O)CCCN2CCCCC2=O)C1` (configuration not stated), the “growth rescue (activation)” value was inactive: -0.456%.
In the case of `CCC(C(=O)Nc1ccc(S(=O)(=O)N2CCN(C)CC2)cc1)c1ccccc1` (configuration not stated), the “growth rescue (activation)” value was inactive: 7.36%.
For `O=C(O)c1csc(N/N=C/c2ccc(Br)cc2)n1`, the “growth rescue (activation)” value was inactive: 1.92%.
For `CSc1ccccc1NC(=O)CN(C)C(=O)c1cccc(S(=O)(=O)N(C)C)c1`, the “growth rescue (activation)” value was inactive: -1.11%.
